This is one part of the list.
Biological target: T1, OsWOX13 (Oryza sativa, UniProt Q5QMM3 1-267)
T1 sequence: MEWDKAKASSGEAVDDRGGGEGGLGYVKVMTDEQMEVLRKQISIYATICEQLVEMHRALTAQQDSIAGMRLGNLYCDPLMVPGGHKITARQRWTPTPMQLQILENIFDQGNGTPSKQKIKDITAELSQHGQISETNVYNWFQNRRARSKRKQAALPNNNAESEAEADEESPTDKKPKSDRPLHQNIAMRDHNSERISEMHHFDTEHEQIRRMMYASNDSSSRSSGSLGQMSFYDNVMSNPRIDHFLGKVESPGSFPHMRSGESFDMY
Assay: protein-binding microarray (RPBM); PBS, 2% BSA, 51.3 ng/ul salmon testes DNA, 50 uM zinc acetate, 200 nM TF, 25 C, 1 h; high values mean tight binding
Settings: protein: recombinant; tags: N-terminal polyhistidine and DsRed monomer fusion (pET32a); label: CyDye5-dUTP incorporated in the synthesized complementary strand; 3' TTTTT single-stranded linker to array surface; dsDNA, one strand shown
Method in brief: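 Polyhistidine-tagged DsRed fusions of transcription factors, joined at the N-terminus, were expressed in E. coli BL21-CodonPlus and isolated on Ni–NTA. They were incubated at 200 nM for 1 h at 25 °C on a custom Agilent array, double-stranded and BSA-blocked, in PBS with 2% BSA, salmon testes DNA and 50 µM zinc acetate. The binding signal is per-feature fluorescence intensity (arbitrary units) read on an Axon 4000B scanner after washing.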

Row | Sequence | binding signal
1 | TCCGATCGGCTTGATTGAACGGCAGGATGATAAGGGTGGACGGAGTCACCTAGTGCAG | 35900 fluorescence intensity (a.u.)
2 | CCAATCAATTATAACCCTTCTTCGTTCACTAATTCCAATACGGAGTCACCTAGTGCAG | 16000 fluorescence intensity (a.u.)
3 | ATGTAATTTGGTTCACTATATGATAAAAGGGATCGATGGACGGAGTCACCTAGTGCAG | 5670 fluorescence intensity (a.u.)
4 | CAGGCCTAATTAATTAAGCTGAGCTCCACTGTCTCCACTCCGGAGTCACCTAGTGCAG | 34000 fluorescence intensity (a.u.)
5 | TTGCCTTAATCATAGCACTAATCGCAGTTCTCGACAATAGCGGAGTCACCTAGTGCAG | 3220 fluorescence intensity (a.u.)
6 | GTAATAGACATATTTTGGTTGATCTATCGTATCAATGGATCGGAGTCACCTAGTGCAG | 15300 fluorescence intensity (a.u.)
7 | CGTGCCATAATTGCATAATTTAAACTATTGCATACGTGACCGGAGTCACCTAGTGCAG | 24700 fluorescence intensity (a.u.)
8 | TGTAAGTTAATTAATGTATGTAGATGTAAATTGCTTGGTTCGGAGTCACCTAGTGCAG | 28000 fluorescence intensity (a.u.)
9 | TCACTAAAATCCCTCAAAATTGATTTTGAGATGAAATAGGCGGAGTCACCTAGTGCAG | 6900 fluorescence intensity (a.u.)
10 | CGGCTTAATTAGTCTCAAAAGATTCGTCTCACGGTTTCCACGGAGTCACCTAGTGCAG | 30500 fluorescence intensity (a.u.)
11 | GGCACGGCGAACCTCAGCCATCACCTTGTGCATGGCCGTCCGGAGTCACCTAGTGCAG | 5780 fluorescence intensity (a.u.)
12 | TCATAATAAATTAAGAAAATTGCTAAAAGCCTTGTCGCAACGGAGTCACCTAGTGCAG | 18300 fluorescence intensity (a.u.)
13 | TTTAATTAATAATGTAATAATTATCAAGTTAATCTGATTACGGAGTCACCTAGTGCAG | 29700 fluorescence intensity (a.u.)
14 | CTCTTGTCACTTAATTAATCACAGGAACCGCGGCTAAACACGGAGTCACCTAGTGCAG | 14500 fluorescence intensity (a.u.)
15 | GTCTAATCTTATTATAACTAAGTTTAAATTAGTTGTGGCACGGAGTCACCTAGTGCAG | 11200 fluorescence intensity (a.u.)
16 | AAAATCATTTGCATAAACTTTTATCTAGCACGAATGGTTACGGAGTCACCTAGTGCAG | 4260 fluorescence intensity (a.u.)
17 | AAAGTAATTGCAATACCTACATGTTCATAGGTGGTTGCATCGGAGTCACCTAGTGCAG | 20800 fluorescence intensity (a.u.)
18 | ATGCGTGTATTAATTAGTGTCACTCGAGCTAGTCGTCTCGCGGAGTCACCTAGTGCAG | 4530 fluorescence intensity (a.u.)
19 | ATAATTGACATCGTTAATTTTAGAGACACATTTAACTATTCGGAGTCACCTAGTGCAG | 42500 fluorescence intensity (a.u.)
20 | GTATAATAATTTCAAGGATGAAATTTCTAAAGGAGGGAAGCGGAGTCACCTAGTGCAG | 7880 fluorescence intensity (a.u.)
21 | ATAATACCAGTATTTGTAATTAATTGCAACTCAAAGTCTTCGGAGTCACCTAGTGCAG | 8890 fluorescence intensity (a.u.)
22 | CACCCAATTAGTTAAACACAGCCATGCGGGACCCACCTCCCGGAGTCACCTAGTGCAG | 8850 fluorescence intensity (a.u.)
23 | TCTAATAATTTTCCCGTTCTGGATCCTAAGGAGCACAAGGCGGAGTCACCTAGTGCAG | 4400 fluorescence intensity (a.u.)
24 | CTGATGATGGGCCCTTAAACTTCAATTTAAAGCAAAATGACGGAGTCACCTAGTGCAG | 6640 fluorescence intensity (a.u.)
25 | AGATTCAATAATAAATCTTATTGAATGGTGATGTAACTTGCGGAGTCACCTAGTGCAG | 6350 fluorescence intensity (a.u.)
26 | TGCAATTGAAGATAGATTAAAACTAGTACGGGTCAACGGACGGAGTCACCTAGTGCAG | 19500 fluorescence intensity (a.u.)
27 | TAAGAATGATTGCAGACCCACAATCTTGCACCAACATATGCGGAGTCACCTAGTGCAG | 20300 fluorescence intensity (a.u.)

Row | Sequence | binding signal
28 | ATACAAATCAGAAATATACAGATTTTAGGCCATTGTTCACCGGAGTCACCTAGTGCAG | 11300 fluorescence intensity (a.u.)
29 | CTTTGACAGACAGATATCCATTCATACGTGCACAGGCGACCGGAGTCACCTAGTGCAG | 55300 fluorescence intensity (a.u.)
30 | GCACGCTAATTGTTGGTGTACATGGCTCTGTATGCTTACTCGGAGTCACCTAGTGCAG | 12200 fluorescence intensity (a.u.)
31 | AAGAAAATAGATAGATATGAACTTTGATGTGGAGTTTTCACGGAGTCACCTAGTGCAG | 4600 fluorescence intensity (a.u.)
32 | AGTGAAATTACGAGGAAACATACCATGTTCTACGAGAAGGCGGAGTCACCTAGTGCAG | 4290 fluorescence intensity (a.u.)
33 | AAACTAATAGGTAAATATATATATTAGTATCTATTTACACCGGAGTCACCTAGTGCAG | 12400 fluorescence intensity (a.u.)
34 | GCTGCTCGGATTTGATTGATTGATTGATTGGCGGGTGGTCCGGAGTCACCTAGTGCAG | 64500 fluorescence intensity (a.u.)
35 | AGAATAATTTATATTATGAAACGGAGGGAGTAGTAGTTTACGGAGTCACCTAGTGCAG | 6710 fluorescence intensity (a.u.)
36 | ACGTGGCTAATTTAACTATGTCTTCATCTGACGTAGCATTCGGAGTCACCTAGTGCAG | 10900 fluorescence intensity (a.u.)
37 | TGATTTGATTAGTATTAATCTTTCTGAAAAGAACAATAAACGGAGTCACCTAGTGCAG | 11100 fluorescence intensity (a.u.)
38 | ACTCAAATTTACAGTGTATTTTCTTGTAAGTTACAGTGTACGGAGTCACCTAGTGCAG | 5550 fluorescence intensity (a.u.)
39 | AAAGAACCAATTGATTGAGCTGGGGCAGTAGCAGTCGTACCGGAGTCACCTAGTGCAG | 26400 fluorescence intensity (a.u.)
40 | ACTGACTTGGGACCTAAATTAGACGGTTTTGTATAGTTTACGGAGTCACCTAGTGCAG | 3180 fluorescence intensity (a.u.)
41 | TTCAAAATTACGGAAACTTACATATAAGTTACACTGTAGTCGGAGTCACCTAGTGCAG | 3200 fluorescence intensity (a.u.)
42 | TTACTAATGGATAATAATCTCTCTCTCTCTCTCTCTCTCTCGGAGTCACCTAGTGCAG | 10300 fluorescence intensity (a.u.)
43 | AACTGTGAGTAAAAGGAGATTGATTAGATGATGCGAAGCTCGGAGTCACCTAGTGCAG | 15900 fluorescence intensity (a.u.)
44 | TGGCTTCTTTGATTAGGTATTTATTCGACGTGTGATATTGCGGAGTCACCTAGTGCAG | 7660 fluorescence intensity (a.u.)
45 | GGACTAATTTGTTTATTGAGTTTATATACGGATAATTAGACGGAGTCACCTAGTGCAG | 31600 fluorescence intensity (a.u.)
46 | ATGGCTTCAATTAATTCACCTATGGGCAGCATCAACCCACCGGAGTCACCTAGTGCAG | 3980 fluorescence intensity (a.u.)
47 | GTATGGTTGACTGAATTGTTTGACTTATCTTTGGCATTGACGGAGTCACCTAGTGCAG | 6840 fluorescence intensity (a.u.)
48 | TGTAACGAGATATGATTGAAAAGTACGAATTTCAGCGGAACGGAGTCACCTAGTGCAG | 43900 fluorescence intensity (a.u.)
49 | ATAATGTGTGATTAATTGAGTTTTAGTTATTACAAACTTGCGGAGTCACCTAGTGCAG | 40800 fluorescence intensity (a.u.)
50 | TTTTAATTATGTTAATTTGGCATAACAGTGAGTATTTTACCGGAGTCACCTAGTGCAG | 36900 fluorescence intensity (a.u.)
51 | GCTGTGATGAGGTGGATCATAAATTTATAATAGAGATGATCGGAGTCACCTAGTGCAG | 6890 fluorescence intensity (a.u.)
52 | GTGGGTATTGATTTGCTCCAGAAGTGAGATAAGCCTTTCTCGGAGTCACCTAGTGCAG | 10700 fluorescence intensity (a.u.)
53 | TGGCGACCAATTTTAATTGGGTCCTATCATGTTGGAGGAACGGAGTCACCTAGTGCAG | 3160 fluorescence intensity (a.u.)
54 | ATTAATGAACTAAAATGCGTCAAATATATAACATTGATATCGGAGTCACCTAGTGCAG | 4470 fluorescence intensity (a.u.)
